The source gives no read counts; variants with many changes may rest on few reads.
B1: LINE1-mini (parent)
chain: GGCAGAGCUCAACACAGCGUGGCAAAGUGGCUGUGGCUAGACUGCC

Variants of: B1
Experiment: self-cleavage, relative activity (ratio to wild type); higher = more cleavage; in vitro, sequencing; the parent is a self-cleaving ribozyme
GGAAGAGCUCACCGCAGCGUGGCAAAGUGGCUGUGACUAGACUGCC [C3A A12C A14G G36A] showed a self-cleavage of 0.03. Variant GGAAGAGCUCAGCACAGCGUGGUAAAGUGCGUUUGGCUAUACUGCC [C3A A12G C23U G30C C31G G33U G40U] has a self-cleavage of 0.01. In the case of GGAAGAGCUCUACACAGCGUGGCAAAGUGGCUGGGGCUAGACUGCC [C3A A11U U34G], the self-cleavage is reported as 0.02. GGAAGCGCUCAACAGAGCGUGGCAAAGUGGCUUUGGCUAGACUGGC [C3A A6C C15G G33U C45G] gave a self-cleavage of 0. GGAAGAGCUCCACACAGCGGGGCAAAGUGUCUGUGGCUAGACUGCC [C3A A11C U20G G30U] showed a self-cleavage of 0.03. In the case of GGAAGAGCUCUACACAGCGUGGCAAAUUAGAUGUGGCUAGACUGCC [C3A A11U G27U G29A C31A], the self-cleavage is reported as 0.02. GGAAGAGCUCUACACAGCGUGGCAAAGUGGCUGUGUCUAGACUGCC [C3A A11U G36U] showed a self-cleavage of 0.04. In the case of GGAAGAGCUCACCACAGCGUGACAAAGUGUCUGUGGCUAGACUGCC [C3A A12C G22A G30U], the self-cleavage is reported as 0.06. With GGAAGAGCUCCAUACAGCGUGGCAAAGUGGCUGUGGCUAGACUGCC [C3A A11C C13U] the self-cleavage was 0.03. Variant GGAAGAGCUCACUACAGCGUGGCAAAGUGCCUGUGGCUAGACUGCC [C3A A12C C13U G30C] has a self-cleavage of 0.06. For GGAAGAGCUCGACACAGCGUGUCAAAGUGGCGGUGGCUAGACUGCC [C3A A11G G22U U32G], the self-cleavage was 0.04. Work on GGAUGAGCUCAACACAGCGUGGCAAAGUGGCUGUGGCUAGAGUGCC [C3A A4U C42G] yielded a self-cleavage of 0.39. GGAAGUGCACAACACAGCGUGGCAAAGUGGCUGUGGCUAGAUUGCC [C3A A6U U9A C42U] gave a self-cleavage of 0.71. Work on GGAAGAGCUCUACACAGCGUGGCCAACUGGCUGUGGCUAGACUGCC [C3A A11U A24C G27C] yielded a self-cleavage of 0.04. GGAAGAGCUCAACCCAGCGUGGCAAAGUGGCUGUCGCUAGACUGAC [C3A A14C G35C C45A] gave a self-cleavage of 0.06. With GGAAGUGCUCAACACAGCGUGGCACAGUGCCUGUGGCUAGACUGCC [C3A A6U A25C G30C] the self-cleavage was 0.07. In the case of GGAAGAGCUCGACAAAGCGUGGCAAAGUGGCUGGAGCUAGACUGCC [C3A A11G C15A U34G G35A], the self-cleavage is reported as 0.03. GGAAGAGCUCACCACAGCGUGGCAAAGUGGCUGUGGAUAGAUUGCC [C3A A12C C37A C42U] showed a self-cleavage of 0.01. For GGAAGAGCUCAACGCACCGUGGCAAAGUGGCUGUGGCUAGACUGCC [C3A A14G G17C], the self-cleavage was 0.32. GGAAGAGCUCAGCACAGCGUGGCAAAGUUGCUGUGGCUAGACUGCC [C3A A12G G29U] gave a self-cleavage of 0.13. In the case of GGAAGAGCUCAACUCGGAGUGGCAAAGUGGCUGUGGCUAGACUUCC [C3A A14U A16G C18A G44U], the self-cleavage is reported as 0.11. With GGAAGAGCUCAACUCAGCGUGGCAAAGUGGCUGUGGCUUGACUGCC [C3A A14U A39U] the self-cleavage was 0.08. For GGAAGAGCUCGACACAGCGUGGCAAAGUGGCUGUGUCUAGACUGCC [C3A A11G G36U], the self-cleavage was 0.02. With GGAAGCGCUCAACACAGCGUGGCAAAGUGGCUGUGGCUGGAGUGCC [C3A A6C A39G C42G] the self-cleavage was 0.04. Variant GGAAGAGCUCAACGCAGCGUGGCAAAGUGUCUGUGGCUAGCCUGCC [C3A A14G G30U A41C] has a self-cleavage of 0.03. For GGAAGAGCUCAGCACUGCGUGGCAAAGUGGCUGUGGCUAUACUGCC [C3A A12G A16U G40U], the self-cleavage was 0.06. With GGAAGAGCUCAACUUAGCGUGGUAAAGUGGCUGUGGCUAGACUGCC [C3A A14U C15U C23U] the self-cleavage was 0.42. With GGAAGUGCUCAACACAGCGUCGCAAAUUGGCUGUGGCUUGACUGCC [C3A A6U G21C G27U A39U] the self-cleavage was 0.28. GGAAGAGCUCAUUACAGCGUGGCAAAGUGGCUGUGGCUAGACUGCC [C3A A12U C13U] showed a self-cleavage of 0.82. GGAUGAACUCAACACAGCGUGGCAAAGUGGCUGUGGAUAGAGUGCC [C3A A4U G7A C37A C42G] showed a self-cleavage of 0.01. GGAUGAGCUCAACACAGCGUGGCAAAGGGGCUGUUGCGAGACUGCC [C3A A4U U28G G35U U38G] gave a self-cleavage of 0.05. GGAAGAGCUCCACACCUCGUGGCAAAGUGGCUGUGGCUAGACUGCC [C3A A11C A16C G17U] showed a self-cleavage of 0.01. For GGAAGCGCUCAACACAGCGUGGCAAAGUGGCUGUGGAUAGACUGCC [C3A A6C C37A], the self-cleavage was 0.09. GGAAGAGCUCUACACAGCGCGGCAAAGUAGCUGUGGCUAGACUGCU [C3A A11U U20C G29A C46U] showed a self-cleavage of 0.02. For GGAAGGGCUCAACACAGCGUGGCAAAGUGUCUGUGGCUAGACUGCC [C3A A6G G30U], the self-cleavage was 0.1. GGAAGAGCUCACCACAGAGUGGCAAAGUGGCUGUGGCUAGACUGCC [C3A A12C C18A] gave a self-cleavage of 0.07. In the case of GGAAGGGCUCAACACAGCGUGGCAAAGUGGCUGUGGCUAAACUGCC [C3A A6G G40A], the self-cleavage is reported as 0.18. GGAAGAGCUCGAAACAACGUGGCAAAGUGGCCGUGGCUAGACUCCC [C3A A11G C13A G17A U32C G44C] showed a self-cleavage of 0.03. Work on GGAAGGGCUCAACACAGAGAGGCAAAGUGGCUGUGGCUAGACUGUC [C3A A6G C18A U20A C45U] yielded a self-cleavage of 0.04. Variant GGAAGAGCUCAACCCAGCGUGGUAAAGUGGCUGUGGCUAGACUGCC [C3A A14C C23U] has a self-cleavage of 0.02. For GGAAGCCCUCAACACAGCGUGGCAAAGGGGCUGUGGCUAAACUAAC [C3A A6C G7C U28G G40A G44A C45A], the self-cleavage was 0. Work on GGAAGCGCUCAAUACAGCGUGGCAAAGUGGCUGCGGGUAGACUGCC [C3A A6C C13U U34C C37G] yielded a self-cleavage of 0.12. GGAAGAGCUCAGCACAGCGUGGCUAAGUGGCUGUGGCUGGACUGCC [C3A A12G A24U A39G] gave a self-cleavage of 0.2. GGAAGAGCUCAGCACAGCGGGGCAAAGUGGCUGUGGCUAGACAGCU [C3A A12G U20G U43A C46U] showed a self-cleavage of 0.02. Work on GGAAGUGCUCAACACAGCGUGGCAAAGUGGCUCUGGCUAGACUGCC [C3A A6U G33C] yielded a self-cleavage of 0.15. Work on GGAUAAGCGCAACACAGCGUUGCAAAGUGGCUGUGGCUAGACUGCC [C3A A4U G5A U9G G21U] yielded a self-cleavage of 0.22. In the case of GGAAGCGCUCAACACAGCGUGGCAAAGUGACUGUGGGUAGACUGCC [C3A A6C G30A C37G], the self-cleavage is reported as 0.65. GGAAGAGCUCGACACCGCGUGGCAAAGUGGCGGUGGCAAGACUGCC [C3A A11G A16C U32G U38A] showed a self-cleavage of 0. Variant GGAAGAGCUCAGCACAGCGUGGUAAAGUGGCUGUGGCUAUACUGCC [C3A A12G C23U G40U] has a self-cleavage of 0.02. For GGAAGAGCUCAUCACAGCGUGGCAAAGUGGCUGUGGCUAGACUUGC [C3A A12U G44U C45G], the self-cleavage was 0.34. Variant GGAAGAGCUCAUCACAACGUGGCAAAGUGGCUGUGGCUAGCCUGGC [C3A A12U G17A A41C C45G] has a self-cleavage of 0.12. Variant GGAAGAGCUCACCACAGCGUGGCAGAGUGGCUGUGGCUAGACUGCC [C3A A12C A25G] has a self-cleavage of 0.06. In the case of GGAAGAGCUCAACGCAGCGUAACAAAGUGGCUGUGGCUAGACUGCC [C3A A14G G21A G22A], the self-cleavage is reported as 2.71. Work on GGAAGAGCUCACCACAGCGUGGCUAAGUGGCUGUGGCUCGACUGCU [C3A A12C A24U A39C C46U] yielded a self-cleavage of 0.01. GGAAGAGCUCAACCCAGCGUGGCAAAGUGGCUGUGGCUAGACAGCC [C3A A14C U43A] gave a self-cleavage of 0.08. In the case of GGAAGAGCUCAUCACAGCGUGGCAAAGUGGUUGUGGCUAGACUGCC [C3A A12U C31U], the self-cleavage is reported as 0.06.

From the RNAGym collection of RNA variant scans (doi:10.7554/elife.90254)
